The values below come from PMC11570452, “MOTS-c modulates skeletal muscle function by directly binding and activating CK2” (iScience, 2024).

Chains of the proteins cited; added tags and fusions are not shown. Lines headed by an entry give the natural chain unless they say otherwise; changes in a name come on top.
UniProt P67870: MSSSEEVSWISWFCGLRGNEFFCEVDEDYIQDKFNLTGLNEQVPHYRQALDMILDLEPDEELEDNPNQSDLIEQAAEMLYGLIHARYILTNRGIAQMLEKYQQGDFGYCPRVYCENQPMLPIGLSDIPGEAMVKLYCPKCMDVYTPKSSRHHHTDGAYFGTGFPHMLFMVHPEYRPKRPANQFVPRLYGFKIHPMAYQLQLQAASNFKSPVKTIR
UniProt P68400: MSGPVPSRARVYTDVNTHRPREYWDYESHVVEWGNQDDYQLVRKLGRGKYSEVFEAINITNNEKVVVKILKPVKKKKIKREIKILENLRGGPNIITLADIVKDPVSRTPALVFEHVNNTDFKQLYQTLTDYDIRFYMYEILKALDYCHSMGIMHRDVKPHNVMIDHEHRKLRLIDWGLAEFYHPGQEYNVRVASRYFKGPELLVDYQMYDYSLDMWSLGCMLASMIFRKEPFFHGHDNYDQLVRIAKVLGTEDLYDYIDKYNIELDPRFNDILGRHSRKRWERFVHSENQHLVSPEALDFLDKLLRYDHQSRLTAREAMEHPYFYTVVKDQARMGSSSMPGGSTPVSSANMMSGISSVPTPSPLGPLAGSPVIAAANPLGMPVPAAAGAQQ

Test [1] has as its target T1, MOTS-c (mitochondrial open reading frame of the 12S ribosomal RNA type-c), wild type (human).
T1 sequence (peptide): MRWQEMGYIFYPRKLR
As to the kind of experiment: SPR; Biacore T200; MOTS-c or K14Q MOTS-c (10 μg/mL, 10 mM sodium acetate pH 5.0) immobilised on CM5 chip (278 RU and 193 RU); first 70 nM CK2α or CK2β, then CK2α at 2.5, 5.0, 10 and 20 nM flowed at 30 μL/min in 0.01 M HEPES, 0.15 M NaCl, 0.3 mM EDTA, 0.05% tween; both purified. On the technique in general: SPR reads the build-up and loss of mass on a sensor chip optically.

Test [2] has the same target. Briefly: far-Western, overlay or dot blot; MOTS-c (0-21.7 μg) dotted on nitrocellulose; CK2 complex 5 μg/mL in SuperBlock (PBS) flowed over, 30 min, room temperature; detected by CK2α and CK2β antibodies; both purified.

No constants are given. Whether binding was seen depends on the method and setting. Some entries that bind do so weakly or less than the wild type.

For the substance “CK2β (recombinant, IBL) (from UniProt P67870 1-215)”, the binding entry in test [1] is “no binding (tested: 70 nM)”.

Take “CK2 complex (Casein Kinase II; contains both CK2α and CK2β subunits) (from UniProt P68400 1-391; P67870 1-215)”: in test [2], the binding entry is reported as “binds”.
